Assay results taken from the supplement of paper PMC9135407.
Where “and” joins values, the source holds several entries; their conditions need not be identical. Equal entries are not always repeated. Structures can show the parent of a compound that is named as a salt. About 620 (11%) of roughly 5,800 compounds showed activity.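 How the source made its calls: active = score above a cut-off or among the top three wells of a plate; in these data no inactive exceeds 0.85.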 The list shows a part of the results, in another mix than the full data.

Tested on: primary human hepatic stellate cells (donor 1)
Test: scaled lipid accumulation score (0 = DMSO-like, 1 = nortriptyline-like); higher = stronger HSC inactivation (lipid re-accumulation), active = hit call of the paper
Settings: 48 h
Protocol: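 Primary lipid accumulation screen in primary human hepatic stellate cell myofibroblasts (donor 1, passage 8) in 384-well plates. 100 nL of library compound was pin-transferred into 30 µL medium in duplicate, and cells were treated for 48 h. The 'Scaled' score combines distance from plate baseline, toxicity and reproducibility penalties, and is normalised to nortriptyline (positive) and DMSO (negative) controls on each plate. A hit is defined as scaled >0.85 or among the top 3 wells per plate.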

[1] = library stock concentration: 10 mM
[2] = library stock concentration: 1 mM
[3] = library stock concentration: 3.33 mM

Cl.c1cc(OCCN2CCCCC2)cc(-c2n[nH]c3ccc(-c4nc[nH]n4)cc23)c1
scaled lipid accumulation score [1]: active: 1.28

C=CCn1c(=O)c2c(nc(-c3ccc(S(=O)(=O)O)cc3)n2C)n(C)c1=O [1-Allyl-3,7-dimethyl-8-p-sulfophenylxanthine]
scaled lipid accumulation score [1]: inactive: 0.065

C[C@]12CC[C@@H]3c4ccc(OS(=O)(=O)O)cc4CC[C@H]3[C@@H]1CCC2=O
scaled lipid accumulation score [1]: inactive: ≤ 0

C[C@]12CC[C@@H]3c4ccc(OS(=O)(=O)O)cc4CC[C@H]3[C@@H]1CCC2=O [Estropipate]
scaled lipid accumulation score: inactive: ≤ 0

CCCCC[C@H](O)/C=C/[C@H]1[C@@H](O)CC(=O)[C@@H]1CCCCCCC(=O)O [11.beta.-Prostaglandin E1]
scaled lipid accumulation score [2]: inactive: ≤ 0

COc1cc2c(CCNC(C)=O)c[nH]c2cc1Cl [6-Chloromelatonin]
scaled lipid accumulation score [1]: inactive: ≤ 0 and inactive: 0.053

Cn1cccc1/C=C1\C(=O)NC(=O)c2ccccc21
scaled lipid accumulation score [1]: inactive: 0.017

COc1cccc(OC)c1C(=O)N[C@@H]1C(=O)N2[C@@H]1SC(C)(C)[C@@H]2C(=O)O [Methicillin sodium]
scaled lipid accumulation score (library stock concentration: 5 mM): inactive: ≤ -0.001
scaled lipid accumulation score [1]: inactive: ≤ 0

Cc1ccc(S(=O)(=O)NC(=O)NN2CCCCCC2)cc1
scaled lipid accumulation score [1]: inactive: ≤ 0

Cc1ccc(S(=O)(=O)NC(=O)NN2CCCCCC2)cc1 [Tolazamide]
scaled lipid accumulation score: inactive: 0.062
scaled lipid accumulation score (library stock concentration: 6.4 mM): inactive: ≤ -0.006 and inactive: ≤ 0
scaled lipid accumulation score [1]: inactive: ≤ 0
scaled lipid accumulation score (library stock concentration: 16.1 mM): inactive: 0.058

CN(C)c1ccc(C(=O)NCCCCCC(=O)NO)cc1
scaled lipid accumulation score [2]: inactive: ≤ 0

CC(Cc1ccc(O)c(O)c1)(NN)C(=O)O [(S)-(-)-Carbidopa]
scaled lipid accumulation score [1]: inactive: ≤ 0

CC(Cc1ccc(O)c(O)c1)(NN)C(=O)O (stereo not drawn) [S-(-)-Carbidopa]
scaled lipid accumulation score [1]: inactive: 0.098

CCCCC[C@](C)(O)/C=C/[C@H]1[C@H](O)CC(=O)[C@@H]1CCCCCCC(=O)O [15(S)-15-methyl Prostaglandin E1]
scaled lipid accumulation score [2]: inactive: 0.012

CCCn1c(=O)[nH]c2nc(-c3ccc(S(=O)(=O)O)cc3)[nH]c2c1=O
scaled lipid accumulation score [1]: inactive: 0.062

Cc1ccsc1/C=C/C1=NCCCN1C [Morantel tartrate]
scaled lipid accumulation score: inactive: 0.022

Cc1ccsc1/C=C/C1=NCCCN1C [Morantel citrate]
scaled lipid accumulation score (library stock concentration: 4.8 mM): inactive: ≤ 0
scaled lipid accumulation score [1]: inactive: 0.048

CCCCCCCCCCCCCCCCOP(=O)([O-])OCC[N+](C)(C)C [Miltefosine]
scaled lipid accumulation score [2]: inactive: ≤ 0
scaled lipid accumulation score (library stock concentration: 4.9 mM): inactive: ≤ -0.006
scaled lipid accumulation score [1]: inactive: 0.007

CN(C)c1ccc(O)c2c1C[C@H]1C[C@H]3[C@H](N(C)C)C(O)=C(C(N)=O)C(=O)[C@@]3(O)C(O)=C1C2=O
scaled lipid accumulation score [1]: inactive: ≤ 0

CN(C)c1ccc(O)c2c1C[C@H]1C[C@H]3[C@H](N(C)C)C(O)=C(C(N)=O)C(=O)[C@@]3(O)C(O)=C1C2=O [Minocycline hydrochloride]
scaled lipid accumulation score: inactive: ≤ 0
scaled lipid accumulation score (library stock concentration: 4 mM): inactive: ≤ -0.001
scaled lipid accumulation score [1]: inactive: ≤ -0.055

CN(C)c1ccc(O)c2c1C[C@H]1C[C@H]3[C@H](N(C)C)C(O)=C(C(N)=O)C(=O)[C@@]3(O)C(O)=C1C2=O [Minocycline HCl]
scaled lipid accumulation score (library stock concentration: 4.4 mM): inactive: ≤ 0

CCCCCCCCCC(=O)NC(CN1CCOCC1)[C@H](O)c1ccccc1 (stereo partly drawn)
scaled lipid accumulation score [1]: inactive: ≤ 0

COc1cc(C(C)=O)ccc1O [Apocynin]
scaled lipid accumulation score [3]: inactive: ≤ 0
scaled lipid accumulation score [1]: inactive: 0.031

CCN1CCc2nc(N)oc2CC1 [B-HT 933 dihydrochloride]
scaled lipid accumulation score [1]: inactive: 0.188

C[N+](C)(C)CCOC(=O)CCC(=O)OCC[N+](C)(C)C [Succinylcholine chloride]
scaled lipid accumulation score [1]: inactive: ≤ 0

C[N+](C)(C)CCOC(=O)CCC(=O)OCC[N+](C)(C)C [Succinylcholine]
scaled lipid accumulation score (library stock concentration: 6.9 mM): inactive: ≤ 0

O=C(CCCCCCC(=O)Nc1ccc([C@H]2O[C@@H](CSc3nc(-c4ccccc4)c(-c4ccccc4)o3)C[C@@H](c3ccc(CO)cc3)O2)cc1)NO [Tubacin]
scaled lipid accumulation score [3]: inactive: ≤ 0
scaled lipid accumulation score [1]: inactive: ≤ 0

Nc1nc(NC2CC2)c2ncn([C@H]3C=C[C@@H](CO)C3)c2n1
scaled lipid accumulation score [1]: inactive: ≤ 0

Nc1cc(F)ccc1NC(=O)/C=C/c1cnn(C/C=C/c2ccccc2)c1
scaled lipid accumulation score [3]: inactive: 0.048
scaled lipid accumulation score [1]: inactive: 0.024

CCCC[C@@H](C=O)NC(=O)[C@H](CC(C)C)NC(=O)[C@H](CC(C)C)NC(C)=O
scaled lipid accumulation score (library stock concentration: 13 mM): inactive: 0.811

CC#CCC(C)C(=O)/C=C/[C@@H]1[C@H]2C/C(=C/CCCC(=O)O)C[C@H]2C[C@H]1O (stereo partly drawn) [15-keto Iloprost]
scaled lipid accumulation score [2]: inactive: ≤ 0

CCOc1ccc2nc3cc(N)ccc3c(N)c2c1 [Ethacridine lactate monohydrate]
scaled lipid accumulation score [3]: inactive: ≤ 0
scaled lipid accumulation score [1]: inactive: 0.493

CCOc1ccc2nc3cc(N)ccc3c(N)c2c1
scaled lipid accumulation score [1]: inactive: 0.362

CCN(CC)CCNc1ccc(CO)c2sc3ccccc3c(=O)c12 [Hycanthone]
scaled lipid accumulation score: inactive: 0.425
scaled lipid accumulation score [1]: inactive: 0.449
